Each structure is given as a SMILES string. The list shows a part of the results. These are further read-outs of the screen, such as a control signal, another cell line or another target. No call is given for them.

Common to all, as to test: Primary Screen for Target Class Profiling of Small Molecule Inhibitors of Methyltransferases
Assay [1] concerns the target Glycine N-methyltransferase (Homo sapiens) (UniProt Q14749). The conditions noted are these: purified enzyme, MTase-Glo SAH luminescence; measured here: GNMT inhibition; at 40 µM; stronger effect = lower value. The essentials: (§1)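 Each enzyme was assayed with SAM and its substrate. SAH formation detected by MTase-Glo luminescence; single-point 40 uM screen[…].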

In assay [2] the target is Guanidinoacetate N-methyltransferase (Homo sapiens) (UniProt Q14353). The conditions noted are these: purified enzyme, MTase-Glo SAH luminescence; measured here: GAMT inhibition; at 40 µM; stronger effect = lower value. The method in brief:
as §1

Assay [3] concerns the target Histamine N-methyltransferase (Homo sapiens) (UniProt P50135). The settings on record: purified enzyme, MTase-Glo SAH luminescence; measured here: HNMT inhibition; at 40 µM; stronger effect = lower value. The method in brief: as §1
The target of assay [4] is Nicotinamide N-methyltransferase (Homo sapiens) (UniProt P40261). The settings on record: purified enzyme, MTase-Glo SAH luminescence; measured here: NNMT inhibition; at 40 µM; stronger effect = lower value. The method in brief:
as §1

In assay [5] the target is Phenylethanolamine N-methyltransferase (Homo sapiens) (UniProt P11086). The conditions noted are these: purified enzyme, MTase-Glo SAH luminescence; measured here: PNMT inhibition; at 40 µM; stronger effect = lower value. The method in brief:
as §1
% is scaled to controls: 0 for no effect and ±100 for the full control effect.

Take `CC(C)C(Oc1ccccc1)C(=O)N1CCc2c(ncnc2N(C)C)C1` (stereo not given): the activity change, negative = inhibition was -1.47% in assay [1]; 0.616% in assay [2]; 1.34% in assay [3]; -8.34% in assay [4]; -4.59% in assay [5].
On the same counts, the results for `CC1(C)SC2C(NC(=O)[C@H](NC(=O)N3CCNC3=O)c3ccccc3)C(=O)N2C1C(=O)O` (stereo not given in full) are -1.28%, 6.5%, 2.9%, -10.5% and -3.29%.
On the same counts, the results for `CC(=O)Nc1ccc(S(=O)(=O)N2C[C@@H]3C[C@H](C2)c2c(-c4ccc(OC(F)(F)F)cc4)ccc(=O)n2C3)cc1` are -6.76%, -6.02%, -2.46%, -19.3% and -6.23%.
In the same order, the values of `COc1cccc(C(=O)N(C)Cc2ccccc2C(F)(F)F)c1` are -4.59%, 2.3%, 0.644%, -9.84% and -2.22%.
Take `CCOc1ccc(CNC(=O)C(C)n2ccc3cc(S(=O)(=O)N4CCCC4)ccc32)cc1OC` (stereo not given): the activity change, negative = inhibition was -3.54% in assay [1]; -1.15% in assay [2]; -1.11% in assay [3]; -12.8% in assay [4]; -5.8% in assay [5].
In the same order, the values of `COCc1ccc2c(c1)c(OC(C)(C)C(=O)N1CCN(C)CC1)nn2Cc1ccccc1` are -3.92%, -1.09%, -0.314%, -15.3% and -6.69%.
On the same counts, the results for `CCOC(=O)c1cccc(N2C(=O)Cn3cccc3C2C(=O)NC2CCCCC2C)c1` (stereo not given) are 3.73%, 1.24%, 9.88%, 12.1% and 1.36%.
On the same counts, the results for `Cc1ccc(Cn2c(=O)c3ccccc3n3c(-c4cccc(O)c4)nnc23)cc1` are -6.14%, 0%, 6.48%, 3.77% and 1.35%.
Consider `O=Cc1ccc(N2CCN([S+](=O)([O-])C3CC3)CC2=O)cc1`, for which the activity change, negative = inhibition in assay [1] was -6.23%; in assay [2], -3.71%; in assay [3], -3.94%; in assay [4], -5.78%; in assay [5], -1.58%.
Take `CC(C)C(O)(CO)CCO[C@@H]1O[C@H](CO[C@H]2OC[C@](O)(CO)[C@H]2O)[C@@H](O)[C@H](O)[C@H]1O` (stereo not given in full): the activity change, negative = inhibition in assay [1] is 0.09%; in assay [2], 7.35%; in assay [3] it was 11.9%; in assay [4], -4.25%; in assay [5], 2.29%.
On the same counts, the results for `CCCN1CCN(CCCNC(=O)c2cc3n(n2)CC(C)(C(=O)NCc2ccccc2)N(C)C3=O)CC1` (stereo not given) are 1.39%, 1.35%, 4.19%, 3.28% and 1.23%.
Regarding `CC1(C)CC[C@]2(C(=O)O)[C@H](O)C[C@]3(C)C(=CCC4[C@@]5(C)CC[C@H](O[C@@H]6OC[C@@H](O)[C@H](O)[C@H]6O)[C@@](C)(C(=O)O)C5CC[C@]43C)[C@@H]2C1` (stereo not given in full), the activity change, negative = inhibition in assay [1] was 0%; in assay [2] it was 5.84%; in assay [3] it was 9.61%; in assay [4] it was -7.55%; in assay [5] it was 0.994%.
On the same counts, the results for `COc1ccc(-c2cc3n(n2)CC(C)(C(=O)NC2CCCCC2)N(Cc2ccccc2C)C3=O)cc1` (stereo not given) are 0.786%, 0%, 4.03%, 9.92% and 1.14%.
On the same counts, the results for `NCc1c[nH]c(=S)n1[C@@H]1CCc2c(F)cc(F)cc2C1` are 4.58%, 5.31%, 3.54%, -14.6% and -2.82%.
In the case of `CN1CCC[C@H]1c1nc(-c2ccc(F)cn2)no1`, the activity change, negative = inhibition in assay [1] is -10.1%; in assay [2], -11.3%; in assay [3] it was -8.69%; in assay [4], -17.4%; in assay [5], -11.7%.
On the same counts, the results for `O=c1[nH]c(-c2ccc(F)cc2)nc2c1CCN(S(=O)(=O)c1cccs1)C2` are -4.19%, -1.78%, -1.69%, -0.808% and -8.02%.
On to `O=C(NC(Cc1c[nH]c2ccccc12)C(=O)O)c1ccc(Cl)cc1` (stereo not given), for which the activity change, negative = inhibition in assay [1] came out at 2.12%; in assay [2], 0%; in assay [3], 8.25%; in assay [4], 9.39%; in assay [5], 2.14%.
In the same order, the values of `OC(CCN1CCCCC1)(c1ccccc1)C1CCCCC1` (stereo not given) are 4.26%, 13.1%, 15.1%, -6.9% and -3.51%.
On the same counts, the results for `CC1(C)OC[C@H](NC(=O)Nc2ccc(Br)cc2Br)[C@H](c2ccccc2)O1` are 2.62%, -1.96%, 6.62%, -15.7% and 2.06%.
On the same counts, the results for `CC(C)CCNC(=O)CCc1nnc2n(CCC(C)C)c(=O)c3ccccc3n12` are -4.5%, 4.63%, 4.69%, 8.13% and -1.94%.
For `COc1ccccc1NC(=O)Nc1ccc2n(c1=O)C[C@H]1C[C@@H]2CN(C(=O)Cc2cccs2)C1`, the activity change, negative = inhibition was 0.818% in assay [1]; 1.8% in assay [2]; 0.955% in assay [3]; -2.01% in assay [4]; 4.74% in assay [5].
With `COc1ccccc1CNC(=O)C1(C)Cn2c(cc3ccccc32)C(=O)N1Cc1ccco1` (stereo not given), the activity change, negative = inhibition in assay [1] is -3.4%; in assay [2] it was 0.89%; in assay [3], -0.2%; in assay [4] it was -6.73%; in assay [5] it was -6.91%.
In the same order, the values of `CNC(=O)[C@@H]1CN(C(=O)c2ccoc2C)C[C@H]1c1nc(C)no1` are -3.15%, -3.18%, 0.859%, -5.67% and -3.09%.
For `C=CCC1(C(=O)O)CCCN(C(=O)Cc2c[nH]c(=O)n(C)c2=O)C1` (stereo not given), the activity change, negative = inhibition is -1.22% in assay [1]; -0.241% in assay [2]; 1.67% in assay [3]; -2.26% in assay [4]; 1.87% in assay [5].
Regarding `N#C/C(=C\c1ccc(O)c(O)c1)C(=O)NCCCNC(=O)/C(C#N)=C/c1ccc(O)c(O)c1`, the activity change, negative = inhibition was -81.7% in assay [1]; -17.9% in assay [2]; -53.9% in assay [3]; -21.5% in assay [4]; -18.3% in assay [5].
Turning to `CC1=CC(=O)[C@H]2C(C)(C)CCC[C@]2(C)[C@@]1(O)CO`, the activity change, negative = inhibition in assay [1] is 1.73%; in assay [2], 4.82%; in assay [3], 0.767%; in assay [4], -7.66%; in assay [5], 5.34%.
In the same order, the values of `COc1ccc(C[C@H](C)NC[C@@H](O)c2ccc(O)c(NC=O)c2)cc1` are 5.01%, 2.85%, 1.27%, -5.89% and 2.64%.
On the same counts, the results for `CCc1ncc2c(N3CC4CCC(C3)N4CC(F)(F)F)nc3ccccc3n12` are -22.5%, -5.42%, -7.97%, -28.5% and -8.48%.

The record behind these values is PubChem BioAssay AID1745853 (National Center for Advancing Translational Sciences (NCATS), 2022).
